This is an account of results in patent US4808630A, “Method of treating psychotic illnesses” (United States of America, priority 1988, dated 1989).

Where only a bound is given, the exact number is not on record here.

One series has as its system mice. Briefly: Gross motor exploratory activity of mice in a novel environment (tranquilizing effect, photocell counts). The series is classed as in vivo, Female albino laboratory mice. The note with it: 2 hours after 40 mg/kg i.p., 30 minutes, arbitrary units, MANOVA p < .02, p < .05; for Horizontal counts: control 128 ± 48 (tretinoin), 194 ± 24 (isotretinoin); for Vertical counts: control 453 ± 244 (tretinoin), 683 ± 97 (isotretinoin). On the procedure: Female albino laboratory mice from the National Institute of Health stock weighing between 20 to 30 grams were maintained in home cages in groups of less than ten. They were injected intraperitoneally with a suspension of retinoic acid in 10% Tween 80 in physiologic saline and returned to their home cage for two hours. They were then placed individually in an unfamiliar plexiglass chamber where their gross motor activity was automatically counted by two grids of photocells: one for horizontal and one for vertical (rearing) activity. The total count accumulated over 30 minutes in a given orientation (horizontal or vertical) is a measure in arbitrary units of the gross motor exploratory activity of the mouse in this novel environment. Because baseline activity varies from day to day, control values are given for each trial.

A short description of series [1]: HAL and OH-HAL concentrations in serum, red blood cells and brain of rats after HAL followed by isotretinoin (HPLC). The note with it: for Brain ratio (oh-h/hal) / Serum ratio (oh-h/hal) / Brain Haloperidol / Serum Haloperidol / RBC Haloperidol: HAL 1 mg/kg s.c.; for RBC Haloperidol / RBC ratio (oh-h/hal): red blood cells.
Series [2] has as its system patient diagnosed as having schizophrenia. In words: Positive symptoms scale of the Brief Psychiatric Rating Scale (PosBPRS) in a schizophrenic patient. It counts as in vivo, human. The following applies: subject 2. An excerpt:
The isotretinoin then was stopped.
The isotretinoin was again stopped.

Series [3] shares this test system. In words: Clinical observation and neuropsychological evaluation in schizophrenic patients.
The conditions of series [4]: cited from earlier work.
[5] abbreviates: subject 2, second period of isotretinoin treatment.
Where [6] appears, read: isotretinoin 0 mg/kg, mean ± standard error.
[7] abbreviates: isotretinoin 1 mg/kg i.p., mean ± standard error.
Where [8] appears, read: isotretinoin 5 mg/kg i.p., mean ± standard error.

In the series on mice, `CC1=C(/C=C/C(C)=C/C=C/C(C)=C/C(=O)O)C(C)(C)CCC1` [tretinoin, 13-trans-retinoic acid] registered a Horizontal counts of 72 ± 36 and a Vertical counts of 181 ± 81.

Regarding `CC1=C(/C=C/C(C)=C/C=C/C(C)=C\C(=O)O)C(C)(C)CCC1` [isotretinoin, 13-cis-retinoic acid], in series [1] (ISOT given in DMSO, serum, brain and red blood cells), the “effect on HAL and OH-HAL concentrations in rats” value was “increases the concentrations of HAL and OH-HAL in the serum, brain, and red blood cells”. This compound also returned a Horizontal counts in the series with mice of 117 ± 56. Besides, in the series on mice, the Vertical counts came out at 371 ± 216. Moreover, the PosBPRS in series [2] (5 weeks drug free after isotretinoin alone was discontinued) was 2.37; in series [2] (isotretinoin 40 mg/day with haloperidol 60 mg/day), 0.55; in series [2] (over three weeks after haloperidol, benztropine and isotretinoin discontinued), 1.12; in series [2] (six weeks on isotretinoin restarted without other medications) it was 0.35. Further, in series [3] (subject 1, after starting isotretinoin 0.6 mg/Kg/day with haloperidol 0.2 mg/Kg/day), the “change in clinical condition” value is recorded as “no adverse change in their clinical condition”. The “neuropsychological performance (simple and complex memory, verbal fluency, attention, cognitive efficiency)” value in series [3] (subject 2, 5 weeks after second isotretinoin course discontinued) was “dramatic declines to below pretreatment levels”. Further, in series [3] (subject 2, second isotretinoin course (alone) stopped, noticeable by three days), the “clinical presentation after isotretinoin discontinued” value is “worsened with flattening of affect, loss of motivation, and increasing social withdrawal”. The block design entry in series [3] (setting [5]) was “declined”. In series [3] (setting [5]), the verbal fluency entry is “improved”. The neuropsychological performance levels entry in series [3] (subject 2, second period of isotretinoin treatment vs end of preceding three week drug free period) is on record as “no significant changes in performance levels”. For the same compound, the “clinical state after stopping isotretinoin” value in series [3] (subject 2, within 2 days of stopping isotretinoin, still on haloperidol 60 mg/day) is “more parkinsonian and more irritable”.

With `OC(CCCN1CCC(O)(c2ccc(Cl)cc2)CC1)c1ccc(F)cc1` (stereo not drawn) [Oh-haloperidol, 4-(4-(4-chlorophenyl)-4-hydroxy-piperdinyl)-1-(4-fluorophenyl)-1-butanol], in series [1] (F(3,31)=8.27, p=0.0003, no individual mean significant), the “overall effect of isotretinoin on brain OH-HAL values” was “significantly altered overall”. Moreover, the “overall effect of isotretinoin on serum OH-HAL concentrations” value in series [1] (F(3,31)=9.56, p=0.0001) is “altered significantly”. For the same compound, in series [1] (F(3,31)=11.1, p=0.001), the “overall effect of isotretinoin on red blood cell OH-HAL concentrations” value is “significantly altered overall”.

As for `O=C(CCCN1CCC(O)(c2ccc(Cl)cc2)CC1)c1ccc(F)cc1` [haloperidol, 4-[4-(p-chlorophenyl)-4-hydroxy-piperidino]-4'-fluorobutyrophenone], the “overall effect of isotretinoin on red blood cell HAL concentrations” value in series [1] (F(3,31)=1.71, p=0.186) is recorded as “not significantly altered overall”. In addition, the “overall effect of isotretinoin on serum HAL concentrations” value in series [1] (F(3,31)=2.96, p=0.0473) is on record as “affected significantly”. Also, the “overall effect of isotretinoin on serum ratio OH-HAL to HAL” value in series [1] (F(3,31)=3.38, p=0.0306) is reported as “significantly altered”. Further, the “overall effect of isotretinoin on brain ratio of OH-HAL to HAL” value in series [1] (F(3,31)=4.86, prob>F=0.0069) was “significantly changed”. For the same compound, the “overall effect of isotretinoin on brain HAL” value in series [1] (F(3,31)=9.75, p=0.0001) is “significantly altered overall”. For the same compound, the “overall effect of isotretinoin on red blood cell ratio OH-HAL to HAL” value in series [1] (F(3,31)=12.66, p=0.0001) is given as “significantly altered overall”. In addition, the “Brain ratio (oh-h/hal)” value in series [1] (isotretinoin 0 mg/kg) was determined as 0.216; in series [1] (isotretinoin 1 mg/kg i.p.), 0.15; in series [1] (isotretinoin 5 mg/kg i.p., * p < .05), 0.13; in series [1] (isotretinoin 10 mg/kg i.p.) it was 0.19. Moreover, the “Serum ratio (oh-h/hal)” value in series [1] (isotretinoin 0 mg/kg) is recorded as 0.038; in series [1] (isotretinoin 1 mg/kg i.p.), 0.060; in series [1] (isotretinoin 5 mg/kg i.p.), 0.044; in series [1] (isotretinoin 10 mg/kg i.p.) it was 0.029. Also, the “Brain Haloperidol” value in series [1] (setting [6]) stood at 465 ± 44 ng/mL; in series [1] (setting [7]), 413 ± 31 ng/mL; in series [1] (setting [8]), 344 ± 26 ng/mL; in series [1] (isotretinoin 10 mg/kg i.p., mean, standard error 90, * p < .05), 739 ng/mL. Moreover, the “Serum Haloperidol” value came to 44.8 ± 7.1 ng/mL in series [1] (isotretinoin 0 mg/kg, mean ± standard error, N=11); 67.5 ± 8.0 ng/mL in series [1] (isotretinoin 1 mg/kg i.p., mean ± standard error, N=8); 73.3 ± 17.1 ng/mL in series [1] (isotretinoin 5 mg/kg i.p., mean ± standard error, N=8); 97.5 ng/mL in series [1] (isotretinoin 10 mg/kg i.p., mean, standard error 19.0, N=8, * p < .05). Further, the “RBC Haloperidol” value in series [1] (setting [6]) came to 13.4 ± 2.4 ng/mL; in series [1] (setting [7]) it was 18.1 ± 4.8 ng/mL; in series [1] (setting [8]), 33.8 ± 16.8 ng/mL; in series [1] (isotretinoin 10 mg/kg i.p., mean, standard error 8.8), 37.2 ng/mL. Moreover, the “RBC ratio (oh-h/hal)” value in series [1] (isotretinoin 0 mg/kg, upper limit) is given as “< .15”; in series [1] (isotretinoin 1 mg/kg i.p., upper limit, * p < .05), “< .11”; in series [1] (isotretinoin 5 mg/kg i.p., upper limit, * p < .05), “< .06”; in series [1] (isotretinoin 10 mg/kg i.p.), 0.09. Further, the “PosBPRS average over the seven days prior to medication change” value in series [2] (four weeks on haloperidol 30 mg/day, drug free 1.83) is reported as 1.00. For the same compound, the “HAL concentrations with concurrent anticonvulsant drugs” value in series [4] (concurrent carbamazepine or phenobarbitol) is reported as “decrease”. The “metabolite of HAL” value in series [4] (humans, reduced form) was “hydroxy-haloperidol (OH-HAL)”. Also, the parkinsonian symptoms result in series [3] (subject 2, on haloperidol 30 mg/day (0.4 mg/Kg/day)) was “developed parkinsonian symptoms”. Also, where the note is “human, in vivo, 0.2 mg/kg/day”, the “blood level of haloperidol” value is 13.7 ng/mL. The serum haloperidol level (human, in vivo, 0.4 mg/kg/day) is 19.1 ng/mL. Besides, the serum haloperidol concentration entry (subject 2, isotretinoin 40 mg/day, haloperidol increased to 60 mg/day (0.8 mg/Kg/day), four successive samples over six weeks) is reported as “unmeasurable”. Further, for the setting “subject 2, within one week of discontinuing haloperidol, benztropine and isotretinoin”, the “haloperidol levels after discontinuation” value is recorded as “fell to zero within one week”.
